Earlier results in PMC11006913.
The list shows a part of the results.

target: PITX2 R130W (Homo sapiens) (UniProt Q99697); settings: PBM; conditions not shown; double strand, one strand shown; scale: upbm affinity estimate (log intensity, higher = more binding, comparable within an allelic series)

Row | Sequence | binding signal
1 | ACGGTAAT [8-mer ACGGTAAT] | 8.59
2 | ATCCCCTA [8-mer ATCCCCTA] | 8.52
3 | CGGTTTTA [8-mer CGGTTTTA] | 8.42
4 | GATAAGAA [8-mer GATAAGAA] | 8.6
5 | AATAATGC [8-mer AATAATGC] | 8.8
6 | CTATAATA [8-mer CTATAATA] | 8.72
7 | CGGCCCCA [8-mer CGGCCCCA] | 7.91
8 | GTATTAGA [8-mer GTATTAGA] | 8.84
9 | ACCACGCC [8-mer ACCACGCC] | 8.1
10 | AAGTCTAA [8-mer AAGTCTAA] | 8.56
11 | GCGGCCAC [8-mer GCGGCCAC] | 7.87

target: PITX2 T114P (Homo sapiens) (UniProt Q99697); settings: PBM; conditions not shown; double strand, one strand shown; scale: upbm affinity estimate (log intensity, higher = more binding, comparable within an allelic series)

Row | Sequence | binding signal
12 | ACGGTAAT [8-mer ACGGTAAT] | 8.73
13 | GGGTATTA [8-mer GGGTATTA] | 9.44
14 | ATATAATC [8-mer ATATAATC] | 9.54
15 | ATCTAATC [8-mer ATCTAATC] | 9.41
16 | ATCCCCTA [8-mer ATCCCCTA] | 8.77
17 | GATTAGTA [8-mer GATTAGTA] | 9.48
18 | CGGTTTTA [8-mer CGGTTTTA] | 8.54
19 | GATAAGAA [8-mer GATAAGAA] | 8.79
20 | AGGTATTA [8-mer AGGTATTA] | 9.49
21 | GATTATAA [8-mer GATTATAA] | 9.56
22 | GATTAAAA [8-mer GATTAAAA] | 9.55
23 | CGGCCCCA [8-mer CGGCCCCA] | 8.02
24 | ACCACGCC [8-mer ACCACGCC] | 8.29
25 | AAGTCTAA [8-mer AAGTCTAA] | 8.67
26 | AAGATTAT [8-mer AAGATTAT] | 9.42
27 | CACTAATC [8-mer CACTAATC] | 9.41
28 | GCGGCCAC [8-mer GCGGCCAC] | 7.99

target: PROP1 R112Q (Homo sapiens) (UniProt O75360); settings: PBM; conditions not shown; double strand, one strand shown; scale: upbm affinity estimate (log intensity, higher = more binding, comparable within an allelic series)

Row | Sequence | binding signal
29 | CCAATAGA [8-mer CCAATAGA] | 12
30 | CGGCCCCA [8-mer CGGCCCCA] | 10.9
31 | ACCACGCC [8-mer ACCACGCC] | 11
32 | GCGGCCAC [8-mer GCGGCCAC] | 11

target: PROP1 R99Q (Homo sapiens) (UniProt O75360); settings: PBM; conditions not shown; double strand, one strand shown; scale: upbm affinity estimate (log intensity, higher = more binding, comparable within an allelic series)

Row | Sequence | binding signal
33 | CGGCCCCA [8-mer CGGCCCCA] | 11
34 | ACCACGCC [8-mer ACCACGCC] | 11
35 | GCGGCCAC [8-mer GCGGCCAC] | 11
